Measurements: US20250340604A1 (ENKEFALOS BIOSCIENCES, published 2025)

Target: human transferrin receptor (hTfR), form not stated (human, UniProt P02786)
Assay: ELISA: hTfR coated at 125 ng/well, concentrated culture supernatant of the fusion, rabbit anti-GCSase and anti-rabbit IgG-HRP, A450; control: supernatant of a non-expressing culture

UniProt P02786, sequence (P02786 89-760 limits assumed): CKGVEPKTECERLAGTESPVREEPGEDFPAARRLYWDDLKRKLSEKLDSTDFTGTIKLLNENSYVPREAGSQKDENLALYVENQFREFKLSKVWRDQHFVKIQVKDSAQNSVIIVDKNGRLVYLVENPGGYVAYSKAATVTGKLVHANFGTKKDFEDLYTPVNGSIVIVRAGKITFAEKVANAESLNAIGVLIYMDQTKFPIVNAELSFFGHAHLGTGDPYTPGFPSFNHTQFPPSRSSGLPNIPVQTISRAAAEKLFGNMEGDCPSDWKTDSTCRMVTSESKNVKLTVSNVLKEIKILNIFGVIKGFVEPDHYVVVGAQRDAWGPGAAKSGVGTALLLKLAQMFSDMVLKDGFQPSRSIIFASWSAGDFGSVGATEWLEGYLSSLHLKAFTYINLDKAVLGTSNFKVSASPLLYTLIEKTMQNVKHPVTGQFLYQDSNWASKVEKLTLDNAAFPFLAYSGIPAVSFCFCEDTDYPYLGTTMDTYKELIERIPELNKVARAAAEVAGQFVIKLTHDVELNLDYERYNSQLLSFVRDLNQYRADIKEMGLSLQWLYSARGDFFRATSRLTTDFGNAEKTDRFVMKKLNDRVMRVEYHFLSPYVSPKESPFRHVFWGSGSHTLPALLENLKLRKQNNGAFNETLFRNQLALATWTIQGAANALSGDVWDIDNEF

B1: GlcCSase-CYC17 fusion cyclotide (enzyme)
chain: ARPCIPKSFGYSSVVCVCNATYCDSFDPPTFPALGTFSRYESTRSGRRMELSMGPIQANHTGTGLLLTLQPEQKFQKVKGFGGAMTDAAALNILALSPPAQNLLLKSYFSEEGIGYNIIRVPMASCDFSIRTYTYADTPDDFQLHNFSLPEEDTKLKIPLIHRALQLAQRPVSLLASPWTSPTWLKTNGAVNGKGSLKGQPGDIYHQTWARYFVKFLDAYAEHKLQFWAVTAENEPSAGLLSGYPFQCLGFTPEHQRDFIARDLGPTLANSTHHNVRLLMLDDQRLLLPHWAKVVLTDPEAAKYVHGIAVHWYLDFLAPAKATLGETHRLFPNTMLFASEACVGSKFWEQSVRLGSWDRGMQYSHSIITNLLYHVVGWTDWNLALNPEGGPNWVRNFVDSPIIVDITKDTFYKQPMFYHLGHFSKFIPEGSQRVGLVASQKNDLDAVALMHPDGSAVVVVLNRSSKDVPLTIKDPAVGFLETISPGYSIHTYLWHRQGSGGGSGGGGSGGGGSLE[about 40 residues left out here]
notes: tested as filtered, concentrated HEK293F supernatant; also called glucocerebrosidase-CYC17 fusion; hGCSase-CYC17
- binding result: binds
